Assay results reported in PubChem BioAssay (NCATS).
Several values for one entry are separate records, joined by “and”; a condition that tells them apart may be missing. Equal values may be shown once. Inconclusive means that the source gave no clear call. Such entries were picked first, then a sample of the others. Potencies of inconclusive entries are doubtful fits and often do not repeat. Where a structure was tested more than once in an assay, its records may differ in their call. Activity calls are given as the source filed them. Calls follow the shape of the dose curve; as a rule, active = well fitted curve in the direction sought with a large enough effect; inconclusive = small, poorly fitted or top-dose-only effect, or another doubt; inactive = no such curve, though single readings can be large; an effect the other way counts as inactive or inconclusive.

Tests used:
[1] = target: Cytochrome P450 3A7 (Homo sapiens) (UniProt P24462); experiment: Cytochrome P450 family 3 subfamily A member 7 (CYP3A7) small molecule antagonists: luciferase biochemical qHTS assay (AID 1963596); also: nearly all actives have a fitted effect of over 40% in size
Chain of UniProt P24462 (P24462 whole entry, looked up): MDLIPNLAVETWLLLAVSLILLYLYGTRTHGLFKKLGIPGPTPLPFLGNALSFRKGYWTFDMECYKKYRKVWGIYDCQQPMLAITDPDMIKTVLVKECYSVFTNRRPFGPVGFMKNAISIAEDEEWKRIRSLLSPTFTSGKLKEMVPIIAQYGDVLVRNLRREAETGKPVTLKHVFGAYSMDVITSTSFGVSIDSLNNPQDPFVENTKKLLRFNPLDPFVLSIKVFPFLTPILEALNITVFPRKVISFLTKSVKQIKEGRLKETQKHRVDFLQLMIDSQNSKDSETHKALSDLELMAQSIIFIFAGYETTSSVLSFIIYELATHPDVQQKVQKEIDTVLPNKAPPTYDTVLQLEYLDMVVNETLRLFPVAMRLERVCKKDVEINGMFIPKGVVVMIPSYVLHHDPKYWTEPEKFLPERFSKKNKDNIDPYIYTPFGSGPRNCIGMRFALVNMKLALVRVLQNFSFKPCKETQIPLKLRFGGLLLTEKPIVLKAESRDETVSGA
Procedure, shortened: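 Recombinant CYP3A7 P450-Glo luminescent assay: enzyme-proluciferin substrate mix preincubated with compound 10 min at room temperature, reaction started with NADPH regeneration system for 1 h. Luciferin detected by luminescence; ketoconazole as positive control.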

[2] = Viability qHTS for spleen associated tyrosine kinase inhibitor (SYKi) drug resistant MV4-11 cells (AID 1963824); also: nearly all actives have a fitted effect of over 35% in size
Procedure, shortened: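 CellTiter-Glo luminescence, read 10 min after reagent addition, reports viability after a 72 hr compound exposure. Cells are an MV4-11 line made resistant to SYK inhibition, seeded at 500 per well onto compound-containing plates.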

[3] = Quantitative highthroughput screen to assess conditional lethalithy of NOMO1 cells grown in RPMI1640 with untreated serum (RPMI+s) (AID 1963876); conditions: NOMO1 AML cells in RPMI+serum, CellTiter-Glo viability, 48 h; viability: at 45.8 µM (top of the series); also: nearly all actives have a fitted effect of over 35% in size;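 as to Viability: 100% = DMSO wells and 0% = empty wells without cells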
Procedure, shortened: (§1)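 Each medium arm—HPLM with 10% dialyzed FBS, or RPMI1640 with 5 mM glucose and 10% untreated or dialyzed FBS—was screened against an 11-point, 3-fold compound titration for 48 h at 37 °C, with CellTiter-Glo luminescence as endpoint.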

[4] = Quantitative highthroughput screen to assess conditional lethalithy of NOMO1 cells grown in RPMI1640 with dialyzed fetal bovine serum (RPMI+ds) (AID 1963877); also: nearly all actives have a fitted effect of over 30% in size
Procedure, shortened: as §1

[5] = Quantitative highthroughput screen to assess conditional lethalithy of NOMO1 cells grown in Human Plasma-Like Medium with dialyzed fetal bovine serum (HPLM+ds) (AID 1963878); conditions: NOMO1 AML cells in HPLM+ds, CellTiter-Glo viability, 48 h; viability: at 45.8 µM (top of the series); also: nearly all actives have a fitted effect of over 35% in size;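 as to Viability: 100% = DMSO wells and 0% = empty wells on each plate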
Procedure, shortened: as §1

[6] = Quantitative highthroughput screen to assess conditional lethalithy of P12 Ichikawa cells grown in Human Plasma-Like Medium with dialyzed fetal bovine serum (HPLM+ds) (AID 1963879); conditions: Potency: viability; also: nearly all actives have a fitted effect of over 35% in size
Procedure, shortened: as §1

[7] = Quantitative highthroughput screen to assess conditional lethalithy of P12 Ichikawa cells grown in RPMI1640 with dialyzed fetal bovine serum (RPMI+ds) (AID 1963880); conditions: Potency: P12-Ichikawa viability; also: nearly all actives have a fitted effect of over 35% in size;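 as to Viability: 100% = DMSO wells and 0% = empty wells on each plate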
Procedure, shortened: as §1

[8] = Quantitative highthroughput screen to assess conditional lethalithy of P12 Ichikawa cells grown in RPMI1640 with untreated serum (RPMI+s) (AID 1963881); conditions: Potency: viability; also: nearly all actives have a fitted effect of over 35% in size;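 as to Viability: 100% = DMSO wells and 0% = empty wells without cells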
Procedure, shortened: as §1

[9] = Quantitative highthroughput screen to assess conditional lethalithy of SEM cells grown in Human Plasma-Like Medium with dialyzed fetal bovine serum (HPLM+ds) (AID 1963882); also: nearly all actives have a fitted effect of over 35% in size
Procedure, shortened: as §1

[10] = Quantitative highthroughput screen to assess conditional lethalithy of SEM cells grown in RPMI1640 with unreated serum (RPMI+s) (AID 1963883); conditions: SEM B-ALL cells, CellTiter-Glo viability, 48 h; viability: at 45.8 µM (top of the series); also: nearly all actives have a fitted effect of over 35% in size
Procedure, shortened: as §1

[11] = Quantitative highthroughput screen to assess conditional lethalithy of SEM cells grown in RPMI1640 with dialyzed fetal bovine serum (RPMI+ds) (AID 1963884); conditions: SEM B-ALL cells, RPMI+dialyzed FBS, CellTiter-Glo viability, 48 h; viability: at 45.8 µM (top of the series); also: nearly all actives have a fitted effect of over 35% in size
Procedure, shortened: as §1

[12] = Cellular viability qHTS for adrenocortical cancer (ACC) cell line NCI-H295R (AID 1963990); conditions: CellTiter-Glo ATP luminescence, 48 h; activity change, negative = viability loss: at 46.1 µM (top of the series); also: nearly all actives have a fitted effect of over 60% in size;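 as to activity change, negative = viability loss: 0% = DMSO only wells and -100% = full killing with cytotoxic reference compound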
Procedure, shortened: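 Compound titrations (up to 46 uM final) are applied to NCI-H295R cultures for 48 h at 37C. Viable cell number is estimated by CellTiter-Glo signal, normalised to DMSO and doxorubicin controls.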

[13] = Cellular viability qHTS for adrenocortical cancer (ACC) cell line SW-13 (AID 1963989); conditions: SW-13 ACC cells viability, CellTiter-Glo, 48 h; activity (max response): stronger effect = lower value; also: nearly all actives have a fitted effect of over 65% in size;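 as to activity (max response): cells grown in serum-free medium with ITS supplement; % is scaled to controls: 0 for no effect and ±100 for the full control effect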
Procedure, shortened: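 48 h treatment, SW-13 in ITS/DMEM serum-free; doses up to 46 uM; readout CellTiter-Glo luminescence; curve fit four-parameter logistic.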
Potency is read from the fitted curve at half-maximal effect; tags tell the direction and shape of the fitted curve.

In the case of `CCC(=O)O[C@]1(C(=O)CCl)[C@@H](C)C[C@H]2[C@@H]3CCC4=CC(=O)C=C[C@]4(C)[C@@]3(F)[C@@H](O)C[C@@]21C`, the Potency [1] is reported as inconclusive: 17.4 µM [inhibitor, single point], the Potency [2] is reported as active: 15 µM and active: 14.8 µM and the Potency [3] is reported as inconclusive: 23.5 µM [cytotoxic, single point]. For the same compound, the Potency [4] was inconclusive: 5.9 µM [cytotoxic, partial curve, poor fit], the Potency [5] was inconclusive: 0.469 µM [cytotoxic, full curve, poor fit] and the Potency [6] was inconclusive: 0.0105 µM [cytotoxic, full curve]. The Potency [7] was inconclusive: 0.0042 µM [cytotoxic, full curve], the Potency [8] was inconclusive: 0.0047 µM [cytotoxic, full curve] and the Potency [9] was inconclusive: 0.0105 µM [cytotoxic, full curve, poor fit]. For the same compound, the Potency [10] was inconclusive: 0.0105 µM [cytotoxic, full curve], the Potency [11] was inconclusive: 0.0118 µM [cytotoxic, full curve, poor fit] and the Potency [12] was inconclusive: 20.6 µM [cytotoxic, single point] and inconclusive: 17.8 µM [cytotoxic, partial curve, poor fit].

For `CC(C)c1c(NC(=O)Nc2ccc(Cl)cc2)c(=O)n(-c2ccccc2)n1C`, the Potency [1] was inconclusive: 10 µM [inhibitor, partial curve, poor fit] and the Potency [2] was inconclusive: 10.3 µM [cytotoxic, partial curve, poor fit].

In the case of `O=C1NCC2(CCN(CCc3ccccc3)CC2)O1`, the Potency [1] is reported as “inactive”, the Potency [2] is reported as “inactive” and the Potency [12] is reported as “inactive”.

With `CC[N+](C)(C)c1cccc(O)c1` the Potency [1] was “inactive” and the Potency [2] was “inactive”.

For `c1ccc2[nH]ccc2c1`, the Potency [1] was inconclusive: 13.8 µM [inhibitor, partial curve, poor fit], the Potency [2] was “inactive” and the activity (max response) [13] was inactive: 10.5%.

For `CNC[C@H](O)[C@@H](O)[C@H](O)[C@H](O)CO`, the Potency [1] was inconclusive: 24.5 µM [inhibitor, single point] and the Potency [2] was “inactive”.

In the case of `CS(=O)(=O)N1CCC(NC(=O)c2[nH]ncc2NC(=O)c2c(Cl)cccc2Cl)CC1`, the Potency [1] is reported as inconclusive: 0.169 µM [inhibitor, full curve, poor fit], the Potency [2] is reported as active: 0.291 µM and the Potency [13] is reported as active: 3.98 µM.

For `C[C@@H]1CN(c2c(F)c(F)c3c(=O)c(C(=O)O)cn(C4CC4)c3c2F)C[C@H](C)N1`, the Potency [1] was “inactive”, the viability, % of control [2] was inactive: 79.8% [at 9.25 µM] and the activity (max response) [13] was inactive: 12.9%.

With `COC(=O)N/N=C/c1c[n+]([O-])c2ccccc2[n+]1[O-]` the Potency [1] was inconclusive: 21.9 µM [inhibitor, single point], the Potency [2] was “inactive” and the Potency [13] was inconclusive: 29.1 µM [cytotoxic, single point]. For the same compound, the Potency [12] was inconclusive: 29.1 µM [cytotoxic, single point].

For `CCOC(=O)c1cccc(CNc2ccc(N(C)C(=O)Nc3ccccc3)cc2)c1`, the Potency [1] was inconclusive: 8.49 µM [inhibitor, partial curve] and the Potency [2] was active: 11.6 µM.

With `NCc1ccc(S(N)(=O)=O)cc1` the Potency [1] was inconclusive: 7.76 µM [inhibitor, single point], the Potency [2] was “inactive” and the activity (max response) [13] was inactive: -8.11%.

In the case of `COC(c1ccccc1)(c1ccccc1)[C@H](Oc1nc(C)cc(C)n1)C(=O)O`, the Potency [1] is reported as inconclusive: 21.9 µM [inhibitor, single point], the Potency [2] is reported as inconclusive: 33.5 µM [cytotoxic, single point] and inactive and the Potency [5] is reported as “inactive”. For the same compound, the Potency [6] was inconclusive: 37.2 µM [cytotoxic, single point], the Potency [7] was inconclusive: 33.2 µM [cytotoxic, single point] and the Potency [8] was inconclusive: 37.2 µM [cytotoxic, single point]. For the same compound, the Potency [9] was inconclusive: 0.0012 µM [rising, full curve], the Potency [10] was inconclusive: 33.2 µM [cytotoxic, single point] and the Potency [11] was inconclusive: 26.4 µM [cytotoxic, single point].

With `CN(C)CCOC(=O)C(c1ccccc1)C1(O)CCCC1` (stereo unspecified) the Potency [1] was “inactive”, the Potency [2] was inconclusive: 8.41 µM [cytotoxic, partial curve, poor fit] and the Potency [12] was inconclusive: 23.1 µM [cytotoxic, single point].

For `CCc1cccc2c3c([nH]c12)C(CC)(CC(=O)O)OCC3` (stereo unspecified), the Potency [1] was inconclusive: 27.5 µM [inhibitor, partial curve, poor fit], the Potency [2] was “inactive” and the Potency [3] was “inactive”. For the same compound, the Potency [7] was “inactive”, the Potency [8] was “inactive” and the Potency [9] was inconclusive: 11.8 µM [cytotoxic, single point]. For the same compound, the Potency [10] was inconclusive: 11.8 µM [cytotoxic, single point] and the Potency [11] was inconclusive: 11.8 µM [cytotoxic, single point].

With `COc1cc2ncnc(-n3nc(-c4ccccn4)nc3N)c2cc1OC` the Potency [1] was inconclusive: 20 µM [inhibitor, single point], the Potency [2] was inconclusive: 0.563 µM [cytotoxic, full curve] and the Potency [3] was inconclusive: 26.4 µM [cytotoxic, single point]. The Potency [5] was active: 20.9 µM, the Potency [8] was active: 26.4 µM and the Potency [10] was active: 1.32 µM.

In the case of `Nc1ccc(S(=O)(=O)Nc2nccs2)cc1`, the Potency [1] is reported as inconclusive: 27.5 µM [inhibitor, partial curve, poor fit], the Potency [2] is reported as “inactive” and the Potency [13] is reported as inconclusive: 29.1 µM [cytotoxic, partial curve, poor fit]. For the same compound, the Potency [12] was inconclusive: 29.1 µM [cytotoxic, single point].

For `C=CC(=O)Nc1cc2c(Nc3ccc(F)c(Cl)c3)ncnc2cc1OCCCN1CCOCC1`, the Potency [1] was “inactive”, the Potency [2] was active: 944 nM and active: 742 nM and the Potency [3] was “inactive”. For the same compound, the Potency [5] was active: 3.32 µM, the Potency [6] was inconclusive: 9.35 µM [cytotoxic, partial curve] and the Potency [8] was active: 5.26 µM. The Potency [9] was inconclusive: 3.32 µM [cytotoxic, full curve], the Potency [10] was inconclusive: 2.96 µM [cytotoxic, full curve] and the Potency [11] was inconclusive: 2.64 µM [cytotoxic, full curve]. The Potency [13] was inconclusive: 1.64 µM [cytotoxic, partial curve, poor fit] and active: 3.55 µM and the Potency [12] was active: 1.46 µM and active: 6.31 µM.

In the case of `CCCCN(CCCC)CC(O)c1cc(Cl)cc2c1-c1ccc(Cl)cc1/C2=C/c1ccc(Cl)cc1` (stereo unspecified), the Potency [1] is reported as “inactive”, the Potency [2] is reported as active: 18.8 µM and the Potency [13] is reported as inconclusive: 20.6 µM [cytotoxic, single point]. For the same compound, the Potency [12] was inconclusive: 29.1 µM [cytotoxic, single point].

In the case of `CC(C)n1nc(-c2ccc3oc(N)nc3c2)c2c(N)ncnc21`, the Potency [1] is reported as inconclusive: 39.8 µM [inhibitor, single point], the Potency [2] is reported as active: 73.1 nM and active: 46.8 nM and the Potency [3] is reported as inconclusive: 0.105 µM [cytotoxic, full curve]. For the same compound, the Potency [4] was inconclusive: 0.0935 µM [cytotoxic, full curve], the Potency [5] was inconclusive: 0.0083 µM [cytotoxic, full curve] and the Potency [6] was inconclusive: 2.64 µM [cytotoxic, partial curve]. The Potency [7] was inconclusive: 0.0332 µM [cytotoxic, full curve], the Potency [8] was inconclusive: 0.372 µM [cytotoxic, partial curve] and the Potency [9] was active: 0.0332 µM.

In the case of `C[C@]12C[C@H](O)[C@H]3[C@@H](CCC4=CC(=O)CC[C@@]43C)[C@@H]1CC[C@@H]2C(=O)CO`, the Potency [1] is reported as inconclusive: 6.92 µM [inhibitor, partial curve] and the Potency [2] is reported as “inactive”.

For `CO[C@@]1(NC(=O)C(C(=O)O)c2ccc(O)cc2)C(=O)N2C(C(=O)O)=C(CSc3nnnn3C)CO[C@@H]21` (stereo partly specified), the Potency [1] was inconclusive: 27.5 µM [inhibitor, single point] and the Potency [2] was “inactive”.

With `CC(C)=CCC/C(C)=C/CC/C(C)=C/CCC(=O)OC/C=C(\C)CCC=C(C)C` the Potency [1] was “inactive” and the Potency [2] was “inactive”.

In the case of `O=C(O)CCNc1cc(N2CCc3ccccc3CC2)nc(-c2ccccn2)n1`, the Potency [1] is reported as inconclusive: 8.49 µM [inhibitor, single point], the Potency [2] is reported as “inactive” and the Potency [5] is reported as inconclusive: 16.6 µM [cytotoxic, partial curve, poor fit]. For the same compound, the Potency [6] was “inactive”, the Potency [7] was inconclusive: 18.7 µM [cytotoxic, partial curve, poor fit] and the Potency [8] was inconclusive: 20.9 µM [cytotoxic, single point]. For the same compound, the Potency [9] was “inactive”.

For `O=C(O)Cc1csc(-c2ccc(Cl)cc2)n1`, the Potency [1] was “inactive” and the Potency [2] was “inactive”.

With `Cc1noc(NS(=O)(=O)c2ccc(N)cc2)c1C` the Potency [1] was inconclusive: 34.7 µM [inhibitor, single point], the Potency [8] was “inactive” and the Potency [12] was inconclusive: 0.58 µM [cytotoxic, full curve, poor fit].
